Laboratory results published in ChEMBL document CHEMBL4689842, “EUbOPEN Chemogenomics Library wave 1” (2021).
For part of its entries the source gives two or more results. They are shown here; other results are not. There may be further records. Results that share an entry are repeated measurements (runs, samples, wells, individuals or studies).

Assays:
Type in all cases: toxicity, cell-based
[1] = system: Fibroblast; test: Multiplex assay against human fibroblast
Summary of the method: (§1)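 Imaging took place on a CQ1 microscope at 37°C and 5% CO2 once compound had been added to live cells stained at seeding with Hoechst33342, BioTracker Green Microtubule Cytoskeleton Dye, MitoTracker Red and Annexin V Alexa Fluor 680. CellPathfinder machine-learning gating classed cells as Hoechst high-intensity objects or normal cells, classed normal cells as having healthy, pyknosed or fragmented nuclei, and classed pyknosed cells as mitotic or apoptotic. Tubulin, mitochondrial-mass and membrane-permeability phenotypes are per cents of the healthy-nucleus cells.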

[2] = system: HEK-293T; test: Multiplex assay against HEK293T; conditions: human; summary of the method: as §1;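 for Population Tubulin-Different-Phenotype (%): share of the cells with healthy nuclei that show this phenotype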
[3] = system: U2OS; test: Multiplex assay against U2OS; conditions: human; summary of the method: as §1
[4] = 12 h, 1 µM, compound concentration 1 uM, replicate 1
[5] = 12 h, 1 µM, compound concentration 1 uM, replicate 2
[6] = 12 h, 10 µM, compound concentration 10 uM, replicate 1
[7] = 12 h, 10 µM, compound concentration 10 uM, replicate 2
[8] = 24 h, 1 µM, compound concentration 1 uM, replicate 1
[9] = 24 h, 1 µM, compound concentration 1 uM, replicate 2
[10] = 24 h, 10 µM, compound concentration 10 uM, replicate 1
[11] = 24 h, 10 µM, compound concentration 10 uM, replicate 2
[12] = 48 h, 1 µM, compound concentration 1 uM, replicate 2
[13] = 48 h, 10 µM, compound concentration 10 uM, replicate 1
[14] = 48 h, 10 µM, compound concentration 10 uM, replicate 2

CS(=O)(=O)N1CCCC(NC(=O)[C@H](CCC2CCCCC2)NC(=O)c2ccc(CNC(=O)c3cnc4ccccn34)cc2)C1 (some centres undefined) [SR-302]
Population Tubulin-Different-Phenotype (%) [1, 4]: 25, 40, 56, 2%
Total Cell Count [1, 4]: 69, 83, 91, 305
Population Fragmented Nuclei (%) [1, 5]: 55, 8, 12, 10%
Population Hoechst High Intensity Objects (%) [1, 5]: 24, 6, 16, 2%
Population Tubulin-Different-Phenotype (%) [1, 5]: 6, 17, 32, 14%
Population Mitochondria Different-Phenotype (%) [1, 6]: 28, 60, 52, 7%
Population Fragmented Nuclei (%) [1, 7]: 48, 12, 9, 6%
Population Hoechst High Intensity Objects (%) [1, 7]: 33, 7, 6, 3%
Population Mitochondria Different-Phenotype (%) [1, 7]: 6, 77, 89, 88%
Population Mitotic Cells (%) [1, 7]: 50, 0, 28, 33%
Population Membrane Permeable-Phenotype (%) [1, 8]: 33, 22, 27, 8%
Population Tubulin-Different-Phenotype (%) [1, 8]: 46, 55, 29, 1%
Total Cell Count [1, 8]: 63, 98, 87, 368
Population Apoptotic (%) [1, 9]: 58, 50, 14, 33%
Population Fragmented Nuclei (%) [1, 9]: 50%, 7%, 3%
Population Healthy Nuclei (%) [1, 9]: 28, 84, 88, 93%
Population Hoechst High Intensity Objects (%) [1, 9]: 23% and 4%
Population Pyknosed Nuclei (%) [1, 9]: 21%, 8%, 2%
Population Tubulin-Different-Phenotype (%) [1, 9]: 6, 27, 16, 11%
Population Membrane Permeable-Phenotype (%) [1, 10]: 50, 35, 17, 10%
Population Mitochondria Different-Phenotype (%) [1, 10]: 43, 50, 52, 14%
Total Cell Count [1, 10]: 43, 83, 118, 217
Population Fragmented Nuclei (%) [1, 11]: 51, 7, 1, 9%
Population Healthy Nuclei (%) [1, 11]: 24%, 77%, 82%
Population Hoechst High Intensity Objects (%) [1, 11]: 37, 11, 4, 5%
Population Apoptotic (%) [1, 12]: 100%, 0%, 50%
Population Mitotic Cells (%) [1, 12]: 0%, 100%, 50%
Population Pyknosed Nuclei (%) [1, 12]: 1%, 2%, 4%
Population Tubulin-Different-Phenotype (%) [1, 12]: 51%, 15%, 18%
Population Membrane Permeable-Phenotype (%) [1, 13]: 43%, 28%, 11%
Population Mitotic Cells (%) [1, 13]: 46%, 12%, 50%
Population Pyknosed Nuclei (%) [1, 13]: 20%, 12%, 38%
Population Hoechst High Intensity Objects (%) [1, 14]: 1% and 9%
Population Healthy Nuclei (%) [2, 4]: 27, 35, 18, 73%
Population Mitochondria Different-Phenotype (%) [2, 4]: 84, 80, 77, 3%
Population Pyknosed Nuclei (%) [2, 4]: 55%, 68%, 14%
Population Tubulin-Different-Phenotype (%) [2, 4]: 38, 41, 52, 3%
Population Membrane Permeable-Phenotype (%) [2, 5]: 13, 5, 4, 1%
Population Mitochondria Different-Phenotype (%) [2, 5]: 26%, 19%, 6%
Population Pyknosed Nuclei (%) [2, 5]: 53, 50, 46, 4%
Population Tubulin-Different-Phenotype (%) [2, 5]: 19, 13, 28, 7%
Total Cell Count [2, 5]: 169, 288, 267, 1738
Population Healthy Nuclei (%) [2, 6]: 16, 17, 15, 70%
Population Mitochondria Different-Phenotype (%) [2, 6]: 100%, 96%, 9%
Population Pyknosed Nuclei (%) [2, 6]: 70, 69, 68, 16%
Population Tubulin-Different-Phenotype (%) [2, 6]: 100, 98, 96, 18%
Population Apoptotic (%) [2, 7]: 47, 48, 50, 7%
Population Fragmented Nuclei (%) [2, 7]: 2, 8, 3, 7%
Population Hoechst High Intensity Objects (%) [2, 7]: 4, 9, 5, 2%
Population Mitochondria Different-Phenotype (%) [2, 7]: 85, 79, 90, 18%
Population Pyknosed Nuclei (%) [2, 7]: 66, 55, 59, 5%
Total Cell Count [2, 7]: 216, 147, 248, 1427
Population Healthy Nuclei (%) [2, 8]: 27, 35, 20, 82%
Population Mitochondria Different-Phenotype (%) [2, 8]: 75, 72, 73, 3%
Population Pyknosed Nuclei (%) [2, 8]: 55, 53, 66, 5%
Population Tubulin-Different-Phenotype (%) [2, 8]: 32, 35, 42, 8%
Total Cell Count [2, 8]: 263, 549, 323, 927
Population Apoptotic (%) [2, 9]: 23%, 24%, 6%
Population Fragmented Nuclei (%) [2, 9]: 4%, 7%, 26%
Population Hoechst High Intensity Objects (%) [2, 9]: 4, 2, 3, 1%
Population Mitochondria Different-Phenotype (%) [2, 9]: 19, 18, 1, 35%
Population Pyknosed Nuclei (%) [2, 9]: 32, 28, 2, 29%
Population Tubulin-Different-Phenotype (%) [2, 9]: 24, 18, 9, 43%
Total Cell Count [2, 9]: 207, 380, 2857, 321
Population Healthy Nuclei (%) [2, 10]: 19, 13, 18, 80%
Population Membrane Permeable-Phenotype (%) [2, 10]: 3%, 2%, 10%
Population Mitochondria Different-Phenotype (%) [2, 10]: 98, 100, 97, 6%
Population Pyknosed Nuclei (%) [2, 10]: 62, 68, 60, 8%
Population Tubulin-Different-Phenotype (%) [2, 10]: 96, 100, 92, 31%
Population Apoptotic (%) [2, 11]: 5%, 53%, 62%
Population Hoechst High Intensity Objects (%) [2, 11]: 1, 2, 8, 4%
Population Mitochondria Different-Phenotype (%) [2, 11]: 95, 8, 86, 96%
Population Pyknosed Nuclei (%) [2, 11]: 51, 4, 43, 46%
Total Cell Count [2, 11]: 240, 2193, 163, 265
Population Hoechst High Intensity Objects (%) [2, 14]: 2%, 4%, 7%
Population Hoechst High Intensity Objects (%) [3, 4]: 4, 2, 3, 7%
Population Mitochondria Different-Phenotype (%) [3, 4]: 26, 6, 8, 11%
Population Apoptotic (%) [3, 5]: 0%, 40%, 33%
Population Mitochondria Different-Phenotype (%) [3, 5]: 27%, 7%, 9%
Population Mitochondria Different-Phenotype (%) [3, 6]: 79, 72, 74, 20%
Population Pyknosed Nuclei (%) [3, 6]: 18, 16, 13, 2%
Population Tubulin-Different-Phenotype (%) [3, 6]: 84, 75, 83, 15%
Population Apoptotic (%) [3, 7]: 100, 71, 66, 20%
Population Mitochondria Different-Phenotype (%) [3, 7]: 77, 89, 88, 23%
Population Mitotic Cells (%) [3, 7]: 0, 28, 33, 80%
Population Tubulin-Different-Phenotype (%) [3, 7]: 79, 91, 92, 19%
Population Mitochondria Different-Phenotype (%) [3, 8]: 20, 5, 6, 11%
Population Tubulin-Different-Phenotype (%) [3, 8]: 14%, 44%, 35%
Population Apoptotic (%) [3, 9]: 33%, 50%, 14%
Population Hoechst High Intensity Objects (%) [3, 9]: 10%, 14%, 4%
Population Mitochondria Different-Phenotype (%) [3, 9]: 24, 8, 7, 4%
Population Mitochondria Different-Phenotype (%) [3, 10]: 50, 66, 64, 13%
Population Pyknosed Nuclei (%) [3, 10]: 17%, 16%, 4%
Population Tubulin-Different-Phenotype (%) [3, 10]: 47%, 61%, 12%
Population Mitochondria Different-Phenotype (%) [3, 11]: 83, 75, 71, 24%
Population Tubulin-Different-Phenotype (%) [3, 11]: 72, 56, 57, 18%
Population Apoptotic (%) [3, 12]: 55%, 8%, 33%
Population Mitotic Cells (%) [3, 14]: 23%, 53%, 10%

CC[C@@H]1C(=O)N(C)c2cnc(Nc3ccc(C(=O)N[C@H]4CC[C@H](N5CCN(CC6CC6)CC5)CC4)cc3OC)nc2N1C(C)C [VOLASERTIB]
Population Tubulin-Different-Phenotype (%) [1, 4]: 10% and 48%
Population Mitochondria Different-Phenotype (%) [1, 8]: 33% and 3%
Population Tubulin-Different-Phenotype (%) [1, 8]: 52% and 11%
Population Mitotic Cells (%) [1, 9]: 0% and 35%
Population Pyknosed Nuclei (%) [1, 9]: 2% and 21%
Population Mitochondria Different-Phenotype (%) [2, 4]: 57% and 16%
Population Apoptotic (%) [2, 5]: 6% and 19%
Population Apoptotic (%) [2, 8]: 46% and 15%
Population Fragmented Nuclei (%) [2, 8]: 32% and 10%
Population Mitochondria Different-Phenotype (%) [2, 8]: 67% and 22%
Population Pyknosed Nuclei (%) [3, 5]: 6% and 24%
